The values that follow come from PMC6212790.

Some of the results follow. At the low end of the ranking the order means little.

The assay has as its target T1, GST-Rok (full length) (UniProt O34857).
T1 sequence: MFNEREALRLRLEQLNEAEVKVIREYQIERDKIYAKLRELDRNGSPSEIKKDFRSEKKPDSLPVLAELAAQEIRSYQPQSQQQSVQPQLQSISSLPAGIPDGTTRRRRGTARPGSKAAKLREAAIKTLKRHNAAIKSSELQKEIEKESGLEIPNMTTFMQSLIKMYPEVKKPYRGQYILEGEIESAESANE
The experiment in a line: protein binding microarray.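 Note: rank score from −0.5 (least bound) to 0.5 (best bound).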 The conditions noted are these: Rok is a gene silencer of Bacillus subtilis; high values mean tight binding; most listed sequences are background and not binding sites; double strand, one strand shown.
Regarding GAATACAA, the binding signal was determined as 0.206 E-score.
Sequence AACGAAAC returned a binding signal of 0.121 E-score.
On to CCCCAAAA, for which the binding signal was -0.284 E-score.
In turn, ACCAACAT returned a binding signal of 0.137 E-score.
AGCTTACA: the binding signal is 0.0835 E-score.
For the sequence AACGATTA, the binding signal was -0.086 E-score.
The sequence CTCCTTTC showed a binding signal of -0.244 E-score.
ACTAACGA displayed a binding signal of 0.182 E-score.
The result for CGCGCCAC reads -0.253 E-score; that for AACGCAGG, -0.155 E-score; that for ATACCCTC, -0.132 E-score.
CCCTATCG came in with a binding signal of 0.109 E-score.
In turn, GGCAGCAA showed a binding signal of -0.0478 E-score.
In turn, GTATAAGA showed a binding signal of 0.199 E-score.
Turning to CGAGCAAA, the binding signal is 0.0324 E-score.
For CGGCAGCC, the binding signal is -0.33 E-score.
With AGCCCCAA, the binding signal is -0.308 E-score.
The result for CCCGAAAA reads -0.0778 E-score; that for AGAGCAGG, -0.156 E-score.
The result for ATGATCCC reads 0.00817 E-score; that for GGGCACCA, -0.229 E-score.
The result for TACAAGAA reads 0.205 E-score.
For the sequence GTACACCA, the binding signal worked out at 0.269 E-score.
CATTGAGG returned a binding signal of -0.107 E-score.
Sequence AGGAGTAT registered a binding signal of 0.128 E-score.
As to AGCAGCAA, the binding signal was -0.0912 E-score.
Consider ATAAATAA, for which the binding signal is 0.329 E-score.
AAGAACAA came in with a binding signal of 0.00669 E-score.
Consider AACCGGCT, for which the binding signal is -0.126 E-score.
On to CCCGACGA, for which the binding signal is -0.104 E-score.
As to ATAAACAC, the binding signal stood at 0.191 E-score.
AGCTATAA registered a binding signal of 0.25 E-score.
AACTAAAA: the binding signal was determined as 0.345 E-score.
Sequence ACATTCGA registered a binding signal of 0.129 E-score.
The result for CCTGCACC reads -0.351 E-score; that for ATTCTTTG, 0.149 E-score; that for TCAGGCAA, -0.00625 E-score.
The sequence AAAGTCCG showed a binding signal of -0.15 E-score.
With CGACCTCC, the binding signal is -0.263 E-score.
On to ACTTTCCC, for which the binding signal is 0.0425 E-score.
In turn, CGGGGTCC displayed a binding signal of -0.389 E-score.
The sequence CCCCAGGA registered a binding signal of -0.34 E-score.
Turning to TATGCTCA, the binding signal is -0.122 E-score.
CACAGGGC returned a binding signal of -0.35 E-score.
ACTGAACG returned a binding signal of 0.0514 E-score.
The sequence CTGAACGA registered a binding signal of -0.194 E-score.
On to CCATGTAC, for which the binding signal came to 0.193 E-score.
Take ATACGGTC: the binding signal is -0.0248 E-score.
Sequence GCAGAAAC registered a binding signal of -0.0153 E-score.
The result for TGAGACAA reads -0.0486 E-score; that for ACAGGCGT, -0.0875 E-score; that for ACTGCGTA, 0.177 E-score.
The result for CCGAAGAG reads -0.241 E-score; that for CATAACAG, 0.134 E-score; that for AACGTGCT, 0.0531 E-score.
In turn, GAATCCTA displayed a binding signal of -0.0459 E-score.
ATAGCCTA displayed a binding signal of 0.0588 E-score.
The sequence CTACTATA yielded a binding signal of 0.399 E-score.
The value for AGGCTGGA was -0.214 E-score; that for AGCGCCGC was -0.274 E-score.
On to GGGCAGTA, for which the binding signal was -0.0575 E-score.
Regarding ATGCGTTA, the binding signal came out at 0.171 E-score.
As for AATCATGA, the binding signal was -0.0298 E-score.
On to CTCCGTCC, for which the binding signal was -0.346 E-score.
The result for TCTAACAA reads 0.0589 E-score; that for ACTCACAG, -0.0591 E-score.
As for CTTCGATA, the binding signal came to 0.123 E-score.
Regarding CTCGCACA, the binding signal was -0.247 E-score.
Turning to CCCCCTGA, the binding signal is -0.395 E-score.
Take ATGAACAC: the binding signal is -0.057 E-score.
For ACTCTCAC, the binding signal was 0.187 E-score.
Consider CGGACAGC, for which the binding signal was -0.1 E-score.
Take AAGTGGGA: the binding signal was -0.224 E-score.
Turning to CCGAACCA, the binding signal was -0.227 E-score.
The result for CAGCCTAC reads -0.0926 E-score; that for CTAATGCC, -0.0513 E-score.
The sequence ACTGTTAT gave a binding signal of 0.287 E-score.
Turning to ACGAATCC, the binding signal came to 0.0453 E-score.
The value for TTGCCAAA was 0.0655 E-score; that for TAACACAA was 0.116 E-score.
CAAATCCA showed a binding signal of -0.0639 E-score.
The value for CTCGGAAC was -0.246 E-score; that for TAGCAACA was 0.21 E-score; that for ACCTCCGA was -0.276 E-score.
Regarding AATGGGAA, the binding signal is -0.0114 E-score.
The value for AGTAGCAC was 0.14 E-score.
CGCCCCCG came in with a binding signal of -0.325 E-score.
CTCTTTAC came in with a binding signal of 0.158 E-score.
The sequence CGTACCAC displayed a binding signal of -0.0224 E-score.
GACTCGCA: the binding signal was -0.145 E-score.
As to GACTGACC, the binding signal was -0.0978 E-score.
Regarding AAGCGTCT, the binding signal was -0.0297 E-score.
In turn, AGCTATCA displayed a binding signal of 0.336 E-score.
In turn, CACGAATA registered a binding signal of 0.215 E-score.
The value for TCACGCGA was 0.0466 E-score; that for ATCAGGCC was -0.131 E-score; that for ATGCGGTA was 0.174 E-score.
The value for AGAACCAA was -0.0547 E-score; that for CGGTAGAA was 0.417 E-score; that for ACGTGATG was -0.13 E-score.
The value for ACGCTCGC was -0.246 E-score.
As to CTAGAGTA, the binding signal is 0.185 E-score.
Turning to CGCCTCTC, the binding signal is -0.282 E-score.
Turning to AACGTGCA, the binding signal is 0.133 E-score.
CGCGAATA had a binding signal of 0.0566 E-score.
Turning to ACAATAGA, the binding signal is 0.281 E-score.
ATCTCTAC gave a binding signal of 0.0894 E-score.
In turn, CTGGTCTC had a binding signal of 0.0532 E-score.
For ACATACAT, the binding signal amounted to 0.295 E-score.
The result for GGGGCTAA reads -0.24 E-score.
ACAAATAT returned a binding signal of 0.402 E-score.
In the case of AGCATTCG, the binding signal is -0.0466 E-score.
The result for TCATCTAA reads 0.0754 E-score; that for AATGTTTG, 0.124 E-score; that for GCCGTGCC, -0.324 E-score.
For CATGCACA, the binding signal was -0.139 E-score.
CCGTAAAG: the binding signal was -0.216 E-score.
With ACATCATA, the binding signal was determined as 0.145 E-score.
CACCGTTA came in with a binding signal of 0.173 E-score.
Consider CACCCGGC, for which the binding signal came to 0.0021 E-score.
Take CTAGGGTC: the binding signal was -0.0484 E-score.
The value for GGCGAGCA was -0.295 E-score; that for AATAGCCA was 0.0168 E-score; that for ACCTTAGA was 0.00282 E-score.
Take ACATCCTC: the binding signal was -0.00918 E-score.
For CCATATCA, the binding signal came out at 0.0943 E-score.
Sequence CAAAACGG returned a binding signal of -0.000516 E-score.
The value for TGACTTAA was 0.04 E-score; that for CCGCGCTC was -0.214 E-score.
Take GTGTAACA: the binding signal is 0.157 E-score.
The value for CTATATAG was 0.402 E-score; that for ACCTTGCC was -0.137 E-score; that for GGGCGGGA was -0.293 E-score.
In turn, ACAGTTAT gave a binding signal of 0.295 E-score.
Turning to GTGGTACA, the binding signal was found to be 0.0722 E-score.
For the sequence GTCTGACA, the binding signal was -0.19 E-score.
The value for CGTTACTC was -0.0623 E-score; that for AGCGTCCG was -0.126 E-score; that for CCGGCGTA was -0.111 E-score.
As to CAAGTGTG, the binding signal was found to be 0.116 E-score.
The result for CAGTGGAG reads -0.235 E-score; that for CCCTTTAA, -0.168 E-score.
For the sequence GCACACGA, the binding signal was 0.023 E-score.
As for CCAGACAC, the binding signal is -0.0826 E-score.
The sequence CCCCTCAA came in with a binding signal of -0.198 E-score.
The result for GAAGTACC reads 0.0862 E-score; that for CGCCGCGA, -0.234 E-score; that for CTTTACGA, 0.0116 E-score.
In turn, AAAAGCCA yielded a binding signal of 0.0244 E-score.
The value for GAGCTCCA was -0.141 E-score; that for CAGGTACC was 0.168 E-score.
In turn, AACATGTT returned a binding signal of 0.0394 E-score.
The value for AGACACCT was -0.256 E-score; that for AGGGGTAG was 0.034 E-score; that for TAAACTGA was 0.0984 E-score.
The result for CACCAACA reads -0.0215 E-score; that for ATGGAGGG, -0.32 E-score; that for TCAGAAAA, -0.147 E-score.
With AGGGGAGC, the binding signal was -0.308 E-score.
On to AAGGTTGG, for which the binding signal was -0.0381 E-score.
GGTATTAC came in with a binding signal of 0.268 E-score.
ATGCTGTG came in with a binding signal of 0.0717 E-score.
The sequence ATGGTCAG registered a binding signal of -0.103 E-score.
The result for TAAAAACA reads 0.192 E-score; that for AGGAGGCC, -0.318 E-score; that for AGTACAAG, 0.217 E-score.
The value for CCCAGTAG was 0.151 E-score.
The value for ACGTGTTG was 0.157 E-score; that for TATACGGA was 0.203 E-score.
Sequence TAACTTGA displayed a binding signal of 0.102 E-score.
For CCCGCCAC, the binding signal is -0.383 E-score.
GAATCTAA had a binding signal of 0.201 E-score.
